Hit rate of the full screen: of about 310,000 compounds, about 2,200 (0.71%) showed an effect of 50% or more. The effect is printed as a negative number. Some of the results follow.

The target of the assay is human ether-à-go-go-related gene (hERG) potassium channel (human, UniProt Q12809). Briefly: primary screen, population patch clamp on CHO cells stably expressing hERG.
human ether-à-go-go-related gene (hERG) potassium channel, sequence (Q12809 whole entry, looked up): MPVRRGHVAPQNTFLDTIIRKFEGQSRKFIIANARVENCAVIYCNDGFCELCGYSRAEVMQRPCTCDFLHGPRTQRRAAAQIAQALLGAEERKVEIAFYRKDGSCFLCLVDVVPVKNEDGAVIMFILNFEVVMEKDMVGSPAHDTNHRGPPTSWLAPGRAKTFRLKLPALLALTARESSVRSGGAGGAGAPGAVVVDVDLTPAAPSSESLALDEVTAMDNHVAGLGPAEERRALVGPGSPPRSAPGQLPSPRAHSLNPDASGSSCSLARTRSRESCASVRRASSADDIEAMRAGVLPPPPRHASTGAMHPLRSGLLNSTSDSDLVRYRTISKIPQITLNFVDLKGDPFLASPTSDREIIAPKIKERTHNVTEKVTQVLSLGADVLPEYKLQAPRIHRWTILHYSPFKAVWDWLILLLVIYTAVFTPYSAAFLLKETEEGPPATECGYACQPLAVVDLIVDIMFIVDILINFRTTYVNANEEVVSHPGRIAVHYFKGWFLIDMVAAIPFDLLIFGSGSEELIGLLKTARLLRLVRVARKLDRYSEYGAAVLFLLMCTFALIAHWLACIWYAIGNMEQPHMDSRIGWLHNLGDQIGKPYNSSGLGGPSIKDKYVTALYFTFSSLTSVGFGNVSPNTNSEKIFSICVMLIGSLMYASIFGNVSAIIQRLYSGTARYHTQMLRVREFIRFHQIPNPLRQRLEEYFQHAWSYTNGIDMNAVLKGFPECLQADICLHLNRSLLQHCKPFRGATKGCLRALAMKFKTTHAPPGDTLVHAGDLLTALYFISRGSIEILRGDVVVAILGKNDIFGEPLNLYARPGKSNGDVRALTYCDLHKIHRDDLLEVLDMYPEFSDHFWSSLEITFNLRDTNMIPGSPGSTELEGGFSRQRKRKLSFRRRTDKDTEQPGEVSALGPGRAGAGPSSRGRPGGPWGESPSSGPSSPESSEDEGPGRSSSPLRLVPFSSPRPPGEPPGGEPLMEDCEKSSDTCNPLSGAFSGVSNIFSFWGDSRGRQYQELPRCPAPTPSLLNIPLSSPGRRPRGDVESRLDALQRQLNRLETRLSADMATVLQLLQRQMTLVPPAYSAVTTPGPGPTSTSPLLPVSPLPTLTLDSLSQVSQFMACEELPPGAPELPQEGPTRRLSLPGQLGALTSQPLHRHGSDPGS
In the case of `COc1ccc(/C=N/NC(=O)CN2CCCC2)cc1`, the “hERG current change (%, negative = inhibition) at 1uM” value worked out at 11.1%.
The result for `O=C(CN1C(=O)c2cccc3cccc1c23)NC1CCCC1` reads 15.4%; that for `COc1ccc(CN2CCN(C(=O)c3cccnc3)CC2)cc1Br.O=C(O)C(=O)O`, 8.44%; that for `Nc1ccccc1-c1nnc(-c2ccc(-c3ccccc3)cc2)o1`, 8.03%.
The result for `c1ccc(-n2cnc3ccccc32)nc1` reads 11.5%; that for `CC(C)Oc1cccc(C2NC(=O)c3ccccc3O2)c1` (stereo not shown), 14.4%.
The result for `Cc1ccc(CCN2CC(C(=O)NCCCOC(C)C)CC2=O)cc1` (stereo not shown) reads -1.67%; that for `COc1ccc(CN2C(=O)Cc3c2nc(N)c2c(N)nc(N4CCCCC4)c(C#N)c32)cc1`, 9.23%; that for `CC1(NC(=O)N2CCOCC2)CCS(=O)(=O)C1` (stereo not shown), 10.1%.
With `N#CC1=C(SCC(=O)c2ccccc2)NC2=C(C(=O)CCC2)C1c1ccco1` (stereo not shown), the “hERG current change (%, negative = inhibition) at 1uM” value is reported as 13%.
For `CC(NC(=O)C1CCCN1C(=O)OCc1ccccc1)c1ccccc1` (stereo not shown) the value was -1.85%.
For `CCSc1nc2cc(OC)c(OC)cc2c(=O)n1CC` the value was 14.9%; for `CCC(=O)N/C(=N/c1nc(C)cc(C)n1)Nc1ccc(C)cc1`, 14.1%; for `CC(C)CN(C#N)c1nc(N2CCOCC2)nc(N2CCOCC2)n1`, 4.74%.
For `O=C1C(=O)N(CCO)C(c2ccc(Br)cc2)/C1=C(\O)c1ccccc1` (stereo not shown) the value was 7.28%.
Consider `Cc1cc(/C=C(\C#N)C(=O)NCc2ccco2)c(C)n1C1CCCC1`, for which the “hERG current change (%, negative = inhibition) at 1uM” value is reported as 12.5%.
The result for `CC(=O)NC(C)Cc1ccccc1` (stereo not shown) reads 12.1%.
For `CC(=O)Nc1ccc(OC(=O)N2CCCC2)cc1` the value was 5.45%; for `CC1C=CCC2C(=O)N(c3cccc(C(=O)NCc4ccccc4)c3)C(=O)C12` (stereo not shown), 14.5%; for `CC(CCc1ccccc1)NC(=O)c1cncc(Br)c1` (stereo not shown), -4.43%.
For the molecule `CN(C)CC1CCCCC1OC(=O)c1ccc(Cl)cc1` (stereo not shown), the “hERG current change (%, negative = inhibition) at 1uM” value is reported as -4.39%.
For `COc1ccc(/C=N/NC(=O)c2nc(-c3ccccc3)n(-c3ccccc3)n2)cc1OC` the value was 10.4%; for `C/C(=N\NC(=O)CCn1nnc2ccccc21)c1ccco1`, 2.71%.
For `COC(=O)c1nn(-c2nc(-c3ccc(OC)c(OC)c3)cc(C(F)(F)F)n2)cc1[N+](=O)[O-]` the value was 0.806%; for `Cc1nc2cc3c(cc2s1)OCO3`, 16%; for `CCC1C(=O)N(C)CCc2ccccc21` (stereo not shown), 15.3%.
The result for `COc1ccc(N2CC(O)=C(c3nc(-c4ccc(F)cc4)cs3)C2=N)cc1` reads 11.8%; that for `Cl.NS(=O)(=O)c1cccc(N2CCNCC2)c1`, 12.5%; that for `CCCCCN(C(=O)CCC(=O)OCc1ccccc1C(F)(F)F)c1c(N)n(CCCC)c(=O)[nH]c1=O`, 8.03%.
Consider `NS(=O)(=O)c1cccc(NC(=O)COC(=O)Cc2ccc(S(=O)(=O)N3CCCCC3)s2)c1`, for which the “hERG current change (%, negative = inhibition) at 1uM” value is 1.16%.
For `O=C(Nc1ccc(O)cc1)/C(=C\c1cccs1)NC(=O)c1ccccc1` the value was 7.03%.
For `COc1ccc(C)c(NC(=O)C2CC(=O)NC3=C2C(=O)CCC3)c1` (stereo not shown), the “hERG current change (%, negative = inhibition) at 1uM” value came to 1.89%.
For `O=C(NCCN1CCCCC1)Nc1ccc(F)cc1` the value was 4.47%; for `Cn1c(=O)c2c(nc(-n3ccnc3)n2Cc2ccccc2)n(C)c1=O`, 9.25%.
For `O=C1CC(NS(=O)(=O)c2ccc(F)cc2)CN1c1ccc2c(c1)OCCO2` (stereo not shown) the value was -6.33%.
The result for `COc1ccc(C(=O)Nn2c(CC(C)C)nc3cc(OC)c(OC)cc3c2=O)c(OC)c1` reads 10.1%; that for `O=C(NC(=S)N1CCc2ccccc21)C1CCC1`, 5.93%; that for `COC(C(=O)N/N=C(\C)CC(=O)Nc1ccc(N(C)C)cc1)c1ccccc1` (stereo not shown), 12.1%.
With `CCOc1cccc(/C=C2\NC(=S)N(c3ccccc3)C2=O)c1O`, the “hERG current change (%, negative = inhibition) at 1uM” value is recorded as 15.1%.
As to `CCc1c(C)nc2c(Br)cccc2c1SCCC#N`, the “hERG current change (%, negative = inhibition) at 1uM” value is on record as 14.9%.
For `Cc1nc2ccc(S(=O)(=O)NC(CC(C)C)C(=O)O)cc2s1` (stereo not shown) the value was 16.5%; for `COc1ccc(S(=O)(=O)N2C3CCC2CC(NC(=O)NC2CCCCC2)C3)cc1` (stereo not shown), 12.5%.
For `CC1(C)CC(=O)C(/C=N/n2cnc3ccccc3c2=O)=C(O)C1` the value was 10.9%.
With `CC1CCC(NC(=O)c2cc3ccccc3cc2O)CC1` (stereo not shown), the “hERG current change (%, negative = inhibition) at 1uM” value came to 5.28%.
The result for `COc1ccc(CC(NC(C)=O)C(=O)NC2CCN(C(=O)Nc3ccc(Cl)cc3)CC2)cc1OC` (stereo not shown) reads 10.2%; that for `Cc1cc(C)nc(-n2ncc3c2CC(C)CC3=O)n1` (stereo not shown), 11.4%; that for `Cc1cc(-c2nnc(SCCC(=O)Nc3ccccc3)o2)no1`, 5.74%.
The result for `COc1ccc(C(=O)N2CCc3ccccc32)cc1` reads -2.9%; that for `Cc1ccccc1N(CC(=O)NC1CCCC1)C(=O)C1(C)CC(=O)N=C2C=CC(Cl)=CN21` (stereo not shown), 6.51%; that for `O=C(CCNS(=O)(=O)c1ccc(Br)cc1)NCc1ccc2c(c1)OCO2`, -1.76%.
For `COc1ccc(N2CCN(CC(=O)NC(=O)NCc3ccco3)CC2)cc1` the value was 10.9%; for `O=C(Nc1ccc(S(=O)(=O)NCC2CCCO2)cc1)c1ccc(Cl)cc1[N+](=O)[O-]` (stereo not shown), 2.26%; for `Cc1cc(C(=O)N2CCCC(C(=O)c3ccc4ccccc4c3)C2)n(C)n1` (stereo not shown), 13.5%.
For `COCC(C)NC(=O)c1cc2cc(OC)ccc2[nH]1` (stereo not shown), the “hERG current change (%, negative = inhibition) at 1uM” value worked out at 6.49%.
For `CCNC(=O)NC(=O)C(C)OC(=O)C1CCN(S(=O)(=O)c2ccc(C)c(C)c2)CC1` (stereo not shown) the value was 9.18%; for `CC(=O)c1ccccc1NC(=O)CCNC(=O)c1ccco1`, 22.1%; for `N#Cc1c(SCC(N)=O)nc2c(c1-c1ccc(O)cc1)CCCC2`, 6.79%.
The result for `COc1ccc(S(=O)(=O)N(CC(=O)NCc2ccncc2)c2ccc(C)cc2)cc1OC` reads 14.4%.

For the origin of these results see paper PMC4336329 (PLoS ONE, 2015).
